Values joined by “and” are separate entries in the source; they are usually repeats but may differ in a detail not shown here. Identical values can stand only once. This list was built around the results that the source calls inconclusive (neither active nor inactive); the mix of calls is not that of the screen. For some assays here: Potencies beside an inconclusive call are fits to weak or partial responses and may not hold up. For some assays here: “Side channel” marks fits to a control or component signal instead of the main read-out. Some compounds were tested as several samples or in several runs, with calls that do not always agree. Active and inactive are the calls of the source. Unless noted, calls follow the shape of the dose curve; as a rule, active = well fitted curve in the direction sought with a large enough effect; inconclusive = small, poorly fitted or top-dose-only effect, or another doubt; inactive = no such curve, though single readings can be large; an effect the other way counts as inactive or inconclusive.
Columns and labels:
[1] = AP1 Signaling Pathway (AID 357; active = well fitted curve in either direction with a large enough effect, not every such curve was filed as active; inconclusive = small, poorly fitted or top-dose-only effect, or another doubt;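 also: ME-180 reporter cells stimulated with EGF at its EC50 level; top concentration of the series differs between compounds; % is scaled to controls: 0 for no effect and ±100 for the full control effect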); details: ME-180 AP-1-bla reporter, EGF-induced, beta-lactamase ratio, 5 h; at 7.69 µM (top of the series) unless noted
Summary of the method: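 Titration-series screen for positive or negative modulators of EC50 EGF-induced signaling in ME-180 cells carrying an AP-1-driven beta-lactamase reporter. After 5 hours at 37 degrees Celsius, CCF4 460nm/530nm emission ratio gave %Activity; AC50 values derived.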

[2] = biological target: 3',5'-cyclic-AMP phosphodiesterase 4B (Homo sapiens) (UniProt Q07343); assay: qHTS Assay for Inhibitors of PDE-IV (AID 607; active = well fitted activation curve with a large enough effect in the main read-out, with a control signal flat, not every such curve was filed as active; inconclusive = small, poorly fitted or top-dose-only effect, or effect the other way, or a change in a side signal; also: potency is read from the fitted curve at half-maximal effect); details: HEK293 ACTOne CNG channel cells, membrane potential fluorescence; activation (PDE inhibition): at 22.9 µM (top of the series)
Summary of the method: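 Live HEK293 cells with a modified cyclic nucleotide-gated (CNG) channel report intracellular cAMP via membrane-potential dye fluorescence (ex 535/em 590 nm). Endogenous PDE-IV was targeted. Compounds were tested at up to 22.9 uM final; RO 20-1724 100 uM served as control.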

[3] = biological target: Cytochrome P450 2C9 (Homo sapiens) (UniProt P11712); assay: qHTS Assay for Inhibitors and Substrates of Cytochrome P450 2C9 (AID 883); also: potency is read from the fitted curve at half-maximal effect; nearly all actives have a fitted effect of over 60% in size
Summary of the method: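 Human CYP2C9 (10nM) with Luciferin-H at 100uM (its KM) in 25mM KPO4; compound preincubated 10 min at 37C, then NADPH regeneration for 60 min at 37C. Luciferin read by luminescence after detection reagent; normalized to 57uM sulphaphenazole as full inhibition.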

[4] = qHTS Assay for Identification of Small Molecule Agonists for Hypoxia Response Element Signaling Pathway (AID 914; active = well fitted activation curve with a large enough effect in the signal ratio, with a control signal flat, not every such curve was filed as active; inconclusive = small, poorly fitted or top-dose-only effect, or effect the other way, or a change in a side signal; the % refers to the signal ratio; also: potency is read from the fitted curve at half-maximal effect; as to activation: top concentration of the series differs between compounds; % of control where 0% means no effect); details: ME-180 HRE-bla reporter, beta-lactamase ratio, CoCl2, 17 h; activation: hits give high values
Summary of the method: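 HRE-bla ME-180 cells, overnight plating in Opti-MEM with 0.5% dialyzed FBS; cpd titration + EC50 CoCl2, 17 h, 37 degrees Celsius; CCF4 2.5 h RT; 460/530 nm ratio; AC50.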

[5] = qHTS Assay for Lipid Storage Modulators (AID 1519; calls by dose curve; also: potency is read from the fitted curve at half-maximal effect); details: Drosophila S3 cells, BODIPY lipid droplet/cell ratio, laser cytometry, cells loaded with oleic acid; activity change, negative = inhibition: at 57.5 µM (top of the series) unless noted
Summary of the method: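 Cells seeded at 5,000 per well were treated with compounds over a concentration series and loaded with oleic acid (400 uM, as added). Lipid droplet fluorescence (488 nm excitation, 500-530 nm channel) was read by laser-scanning cytometry and normalized to 20 uM Triacsin C.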

[6] = biological target: Ubiquitin carboxyl-terminal hydrolase 1 (Homo sapiens) (UniProt O94782); assay: Inhibitors of USP1/UAF1: Pilot qHTS (AID 504865);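 also: rhodamine fluorescence freed from ubiquitin-rhodamine substrate followed over time; potency is read from the fitted curve at half-maximal effect; nearly all actives have a fitted effect of over 35% in size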
Summary of the method: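 1nM USP1/UAF1 + cpd, 15 min RT; start w/ Ub-Rho 150nM final; kinetic FL 480/540 nm, 6 reads q60 s. Buffer 50mM HEPES pH 7.8, 0.5mM EDTA, 1mM TCEP, 0.01% Tween-20, 0.1 mg/ml BSA.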

[7] = Primary qHTS for small molecule stabilizers of the endoplasmic reticulum resident proteome: Secreted ER Calcium Modulated Protein (SERCaMP) assay (AID 1508630); details: SH-SY5Y GLuc-SERCaMP (Gaussia luciferase released on ER calcium loss) secretion, thapsigargin, luminescence; activity change, negative = inhibition: at 38.4 µM (top of the series) unless noted; also: potency is read from the fitted curve at half-maximal effect
Summary of the method: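 GLuc-SERCaMP-expressing SH-SY5Y cells, pretreated 16 h with compound, are challenged with thapsigargin to empty ER calcium stores; after 4 h, coelenterazine is added directly to the medium and luminescence is imaged.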

[8] = biological target: Cytochrome P450 1A2 (Homo sapiens) (UniProt P05177); assay: p450-cyp1a2 (AID 410; calls by dose curve; also: potency is read from the fitted curve at half-maximal effect)
Summary of the method: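 Luminescent readout of luciferin formed from Luciferin-ME by human CYP1A2; data normalized against complete inhibition by 57 uM furafylline. Enzyme 20nM, substrate 100uM at Km, 100mM KPO4 buffer, 60 min reaction at room temperature.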

[9] = NFAT Signaling Pathway (AID 444; active = well fitted curve in either direction with a large enough effect, not every such curve was filed as active; inconclusive = small, poorly fitted or top-dose-only effect, or another doubt;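 also: carbachol stimulus at about its EC50 of 1 µM final; % is scaled to controls: 0 for no effect and ±100 for the full control effect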); details: Jurkat NFAT-bla M1, carbachol, beta-lactamase ratio, 5 h
Summary of the method: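 Jurkat cells with NFAT-driven β-lactamase reporter and co-expressed M1 receptor, stimulated with carbachol (final 1 uM, ~EC50), compound titration, 5 h at 37 °C. CCF4 loaded 1 h at RT; 460/530 nm ratio gave %activity and AC50.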

[10] = biological target: Tyrosyl-DNA phosphodiesterase 1 (Homo sapiens) (UniProt Q9NUW8); assay: Confirmation Assay for Inhibitors of Tyrosyl-DNA Phosphodiesterase (TDP1) (AID 489007); details: recombinant human TDP1 enzymatic activity, dose-response; also: potency is read from the fitted curve at half-maximal effect; nearly all actives have a fitted effect of over 40% in size
Summary of the method: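 Tdp1 1 nM + cpd, 15 min RT; add biotin/phosphotyrosine-FITC oligo 15 nM, 5 min RT; add AS donor/acceptor beads 10 ug/ml, 10 min RT; read AlphaScreen. No-enzyme wells = max signal.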

[11] = Stat Signaling Pathway (AID 446; active = well fitted curve in either direction with a large enough effect, not every such curve was filed as active; inconclusive = small, poorly fitted or top-dose-only effect, or another doubt;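 also: ME-180 cervical cancer cells given 40 pM IL-6 alongside compound; SIE-controlled beta-lactamase reporter measured as 460/530 nm FRET emission ratio; top concentration of the series differs between compounds; % is scaled to controls: 0 for no effect and ±100 for the full control effect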); details: ME-180 SIE beta-lactamase reporter, IL-6 stimulated, 5 h
Summary of the method: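 IL-6/STAT signaling read in ME-180 cells via an SIE beta-lactamase reporter. Stimulus was 40 pM IL-6 (its AC50) for 5 hrs, so both activation and inhibition register.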

[12] = biological target: Mitogen-activated protein kinase 10 (Mus musculus) (UniProt Q61831); assay: JNK3 AlphaScreen Assay (AID 530; active = well fitted curve in either direction with a large enough effect, not every such curve was filed as active; inconclusive = small, poorly fitted or top-dose-only effect, or another doubt;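 also: kinase came from lysate of stimulated human HepG2 cells; signal reports phosphorylation of biotinylated GST-cJun 1-79 at Ser73 with 10 µM ATP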; also: potency is read from the fitted curve at half-maximal effect); details: JNK3 lysate, c-Jun phosphorylation; activity change, negative = inhibition: at 57.1 µM (top of the series)
Summary of the method: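 Pre-activated (IL-1β/TNFα) JNK3 in HepG2 lysates phosphorylates biotin-GST-cJun(1-79), 10 uM ATP; anti-phospho-cJun(Ser73) AlphaScreen read at room temperature, pH 7.6 Tris buffer. Compounds pre-incubated 15 min as titrations.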

[13] = biological target: Cytochrome P450 2D6 (Homo sapiens) (UniProt P10635); assay: qHTS Assay for Inhibitors and Substrates of Cytochrome P450 2D6 (AID 891);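 also: luciferin methyl ether substrate demethylated by CYP2D6 with NADPH regeneration; top concentration of the series differs between compounds; % is scaled to controls: 0 for no effect and ±100 for the full control effect; nearly all actives have a fitted effect of over 60% in size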
Summary of the method: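 Human CYP2D6 (5 nM) with 30 uM Luciferin-ME EGE (at Km) in 100 mM KPO4, compound preincubated 10 min, then NADPH regeneration system for 60 min at room temperature. Luciferin read by luminescence; normalized to 1.43 uM quinidine.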

[14] = qHTS Assay for Identification of Small Molecule Antagonists for NFkB Signaling Pathway (AID 895; active = well fitted inhibition curve with a large enough effect in the signal ratio, with a control signal flat, not every such curve was filed as active; inconclusive = small, poorly fitted or top-dose-only effect, or effect the other way, or a change in a side signal; the % refers to the signal ratio; also: potency is read from the fitted curve at half-maximal effect); details: NFkB beta-lactamase reporter cells, FRET ratio 460/530, stimulated with 10 pM TNF alpha; activity change, negative = inhibition: at 38.3 µM (top of the series)
Summary of the method: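 ME-180 NFkB-bla cells (beta-lactamase under NFkB response element), plated overnight, treated with compound then 10 pM TNF alpha (about EC50) for 5 hrs at 37 C. LiveBLAzer FRET read at 460/530 nm emission, 405 nm excitation.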

[15] = qHTS Assay for Identification of Small Molecule Agonists for Thrombopoietin (TPO) Signaling Pathway (AID 917); also: % is scaled to controls: 0 for no effect and ±100 for the full control effect
Summary of the method: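 Activators of TPO signaling were sought in murine Ba/F3 cells transfected with the human receptor, using a luciferase gene driven by the Glycoprotein IIb promoter; 24-hr compound exposure at 37 C alongside 26 pM TPO, in IL-3-free medium.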

[16] = qHTS Assay for Identification of Small Molecule Antagonists for Thrombopoietin (TPO) Signaling Pathway (AID 918); details: TPO-dependent cell signaling reporter, antagonist mode; activity change, negative = inhibition: at 38.5 µM (top of the series); also: nearly all actives have a fitted effect of over 60% in size
Summary of the method: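 Ba/F3 (murine, hTPO-R, GPIIb-luc reporter); overnight IL-3 withdrawal; cpd + TPO 26 pM final (EC50); 24 h 37 C/5% CO2; Steadylite luminescence after 10 min RT.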

[17] = biological target: Muscarinic acetylcholine receptor M1 (Rattus norvegicus) (UniProt P08482); assay: qHTS Assay for Antagonists of Acetylcholine Muscarinic M1 Receptor: Measurement of IP-One Response (AID 944); also: potency is read from the fitted curve at half-maximal effect; nearly all actives have a fitted effect of over 75% in size
[18] = at 7.69 µM (top of the series) unless noted
Tags tell the direction and shape of the fitted curve or compound fluorescence and quenching.

Chain of UniProt O94782 (O94782 whole entry, looked up): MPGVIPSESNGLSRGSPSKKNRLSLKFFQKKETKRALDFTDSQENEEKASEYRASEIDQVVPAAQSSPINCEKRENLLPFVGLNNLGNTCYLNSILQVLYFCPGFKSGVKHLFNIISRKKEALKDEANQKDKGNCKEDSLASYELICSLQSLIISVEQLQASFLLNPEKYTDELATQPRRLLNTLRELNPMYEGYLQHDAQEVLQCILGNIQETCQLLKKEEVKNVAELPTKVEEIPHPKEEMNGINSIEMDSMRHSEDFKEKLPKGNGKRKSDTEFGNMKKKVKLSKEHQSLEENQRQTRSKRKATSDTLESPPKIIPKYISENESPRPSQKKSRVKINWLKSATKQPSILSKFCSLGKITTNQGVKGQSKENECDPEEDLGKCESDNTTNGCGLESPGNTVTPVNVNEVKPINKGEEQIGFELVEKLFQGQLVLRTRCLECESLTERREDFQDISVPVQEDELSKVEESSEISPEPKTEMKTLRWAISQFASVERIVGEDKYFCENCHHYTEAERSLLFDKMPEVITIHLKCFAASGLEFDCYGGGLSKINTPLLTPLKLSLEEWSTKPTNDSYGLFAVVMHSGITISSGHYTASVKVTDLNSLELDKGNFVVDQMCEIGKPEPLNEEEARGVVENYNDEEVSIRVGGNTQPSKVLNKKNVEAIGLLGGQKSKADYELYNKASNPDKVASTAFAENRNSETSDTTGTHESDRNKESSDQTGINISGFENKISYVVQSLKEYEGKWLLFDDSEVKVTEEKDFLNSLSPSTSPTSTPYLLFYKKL
Chain of UniProt Q07343 (Q07343 whole entry, looked up): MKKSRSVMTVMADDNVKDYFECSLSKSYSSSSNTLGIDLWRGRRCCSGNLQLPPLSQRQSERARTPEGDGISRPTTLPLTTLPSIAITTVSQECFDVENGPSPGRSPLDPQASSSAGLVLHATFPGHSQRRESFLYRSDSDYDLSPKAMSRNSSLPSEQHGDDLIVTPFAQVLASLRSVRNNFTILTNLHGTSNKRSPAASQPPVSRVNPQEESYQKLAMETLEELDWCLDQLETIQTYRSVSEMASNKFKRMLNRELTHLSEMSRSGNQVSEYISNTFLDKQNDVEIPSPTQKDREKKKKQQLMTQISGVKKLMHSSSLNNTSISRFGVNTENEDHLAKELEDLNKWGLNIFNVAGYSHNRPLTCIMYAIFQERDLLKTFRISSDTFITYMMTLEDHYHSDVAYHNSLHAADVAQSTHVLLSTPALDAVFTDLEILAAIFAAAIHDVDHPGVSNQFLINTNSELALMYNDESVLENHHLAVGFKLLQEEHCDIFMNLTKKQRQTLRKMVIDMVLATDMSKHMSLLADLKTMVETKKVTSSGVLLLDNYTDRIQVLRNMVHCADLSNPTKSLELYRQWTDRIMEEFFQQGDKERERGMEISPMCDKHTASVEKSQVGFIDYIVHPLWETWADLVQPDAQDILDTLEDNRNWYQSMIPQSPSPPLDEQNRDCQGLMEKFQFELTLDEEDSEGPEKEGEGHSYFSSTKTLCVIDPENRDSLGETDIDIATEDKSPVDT
Chain of UniProt P10635 (P10635 whole entry, looked up): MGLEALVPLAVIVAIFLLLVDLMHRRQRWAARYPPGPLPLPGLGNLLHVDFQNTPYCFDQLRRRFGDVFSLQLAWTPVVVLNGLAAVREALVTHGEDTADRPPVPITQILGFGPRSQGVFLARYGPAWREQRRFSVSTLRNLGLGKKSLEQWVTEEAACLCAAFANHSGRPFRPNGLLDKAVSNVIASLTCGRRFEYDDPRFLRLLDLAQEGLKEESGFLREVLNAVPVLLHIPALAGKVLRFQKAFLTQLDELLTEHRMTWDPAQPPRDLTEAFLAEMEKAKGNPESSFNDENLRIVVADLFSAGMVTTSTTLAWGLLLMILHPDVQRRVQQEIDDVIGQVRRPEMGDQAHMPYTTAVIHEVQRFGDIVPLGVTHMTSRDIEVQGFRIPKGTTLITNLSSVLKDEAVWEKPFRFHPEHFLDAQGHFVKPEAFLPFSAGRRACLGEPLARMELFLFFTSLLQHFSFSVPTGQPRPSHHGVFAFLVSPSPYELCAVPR
Chain of UniProt P05177 (P05177 whole entry, looked up): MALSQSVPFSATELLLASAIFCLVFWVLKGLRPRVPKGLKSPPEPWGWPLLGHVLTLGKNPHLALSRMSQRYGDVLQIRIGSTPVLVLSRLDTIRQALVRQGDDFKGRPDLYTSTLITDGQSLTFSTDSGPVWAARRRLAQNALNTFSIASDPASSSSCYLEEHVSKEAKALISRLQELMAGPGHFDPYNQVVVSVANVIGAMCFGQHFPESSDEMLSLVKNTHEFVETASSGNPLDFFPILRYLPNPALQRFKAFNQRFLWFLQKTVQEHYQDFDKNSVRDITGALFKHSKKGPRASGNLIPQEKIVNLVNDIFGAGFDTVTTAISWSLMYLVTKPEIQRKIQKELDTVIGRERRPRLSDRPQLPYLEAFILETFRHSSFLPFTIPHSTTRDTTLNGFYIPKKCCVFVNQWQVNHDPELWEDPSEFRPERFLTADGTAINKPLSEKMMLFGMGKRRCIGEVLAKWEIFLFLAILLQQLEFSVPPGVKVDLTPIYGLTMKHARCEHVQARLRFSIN
Chain of UniProt P08482 (P08482 whole entry, looked up): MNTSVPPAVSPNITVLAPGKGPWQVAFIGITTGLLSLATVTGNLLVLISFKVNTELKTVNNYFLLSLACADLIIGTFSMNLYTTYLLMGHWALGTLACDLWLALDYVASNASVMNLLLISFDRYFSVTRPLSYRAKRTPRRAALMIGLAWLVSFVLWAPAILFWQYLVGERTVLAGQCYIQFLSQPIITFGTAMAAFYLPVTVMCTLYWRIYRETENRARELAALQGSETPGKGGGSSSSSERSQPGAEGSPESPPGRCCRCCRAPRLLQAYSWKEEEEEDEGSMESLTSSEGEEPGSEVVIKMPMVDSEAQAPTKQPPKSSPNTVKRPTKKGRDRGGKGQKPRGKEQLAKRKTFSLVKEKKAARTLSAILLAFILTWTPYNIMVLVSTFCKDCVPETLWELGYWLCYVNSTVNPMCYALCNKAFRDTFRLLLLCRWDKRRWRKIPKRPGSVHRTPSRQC
Chain of UniProt P11712 (P11712 whole entry, looked up): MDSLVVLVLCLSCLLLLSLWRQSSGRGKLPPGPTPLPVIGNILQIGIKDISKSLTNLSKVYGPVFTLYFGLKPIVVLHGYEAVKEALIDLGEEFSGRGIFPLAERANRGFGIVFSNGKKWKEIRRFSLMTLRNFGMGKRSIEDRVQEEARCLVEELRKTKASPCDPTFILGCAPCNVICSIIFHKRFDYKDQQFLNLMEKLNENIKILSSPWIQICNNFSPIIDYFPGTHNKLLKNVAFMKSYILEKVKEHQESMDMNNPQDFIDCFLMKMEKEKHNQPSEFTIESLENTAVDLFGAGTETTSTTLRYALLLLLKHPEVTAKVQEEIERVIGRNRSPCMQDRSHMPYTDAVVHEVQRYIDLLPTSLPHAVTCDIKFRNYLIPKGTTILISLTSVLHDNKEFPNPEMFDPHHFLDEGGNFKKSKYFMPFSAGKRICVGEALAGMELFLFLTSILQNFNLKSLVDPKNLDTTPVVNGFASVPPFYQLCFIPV
Chain of UniProt Q9NUW8 (Q9NUW8 whole entry, looked up): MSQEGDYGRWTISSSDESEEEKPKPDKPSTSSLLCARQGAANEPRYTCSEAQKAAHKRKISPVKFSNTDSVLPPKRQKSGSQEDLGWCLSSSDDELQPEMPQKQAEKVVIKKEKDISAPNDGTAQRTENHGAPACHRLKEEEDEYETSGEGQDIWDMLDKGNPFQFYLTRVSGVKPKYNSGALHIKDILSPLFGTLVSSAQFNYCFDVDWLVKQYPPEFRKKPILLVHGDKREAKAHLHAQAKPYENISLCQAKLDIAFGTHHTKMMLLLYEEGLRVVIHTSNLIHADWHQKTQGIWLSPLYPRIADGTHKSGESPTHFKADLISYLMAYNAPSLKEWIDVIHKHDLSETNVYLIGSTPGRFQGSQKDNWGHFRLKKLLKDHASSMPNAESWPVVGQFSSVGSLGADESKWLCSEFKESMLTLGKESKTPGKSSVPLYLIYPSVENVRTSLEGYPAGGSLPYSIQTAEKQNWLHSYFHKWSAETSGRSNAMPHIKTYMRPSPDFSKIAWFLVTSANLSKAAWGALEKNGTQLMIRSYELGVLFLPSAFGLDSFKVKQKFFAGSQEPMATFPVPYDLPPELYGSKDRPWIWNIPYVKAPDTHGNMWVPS

FC(F)(F)c1ccccc1-c1nc(Nc2ccncc2)c2ccccc2n1
inconclusive: activity change, negative = inhibition [1] -33.9% [inhibitor] | Potency [2] 12.6 µM [activator, partial curve] | Potency [3] 0.794 µM [inhibitor, partial curve] | activation [4] 44.4% | activity change, negative = inhibition [5] -21% | Potency [6] 2 µM [inhibitor, full curve, poor fit] | Potency [7] 28.2 µM [inhibitor, single point]

NCCCCCCCCCCNS(=O)(=O)c1cccc2c(Cl)cccc12
active: Potency [8] 15.8 µM
inactive: Potency [7]
inconclusive: Potency [2] 15.1 µM [activator, partial curve] | activity change, negative = inhibition [5] -80.9% | Potency [6] 56.2 µM [inhibitor, partial curve, poor fit]

N#CCCn1c(=O)c(-c2cccs2)nc2cnc(N3CCNCC3)nc21
inconclusive: activity change, negative = inhibition [1] 56.7% [activator] | activity change, negative = inhibition [9, 18] 41% [activator] | Potency [4] 3.98 µM [fluorescent, side channel, single point]
inactive: Potency [5] | Potency [7]

Cc1noc(C)c1-c1nc(NCc2cccnc2)c2ccccc2n1
inconclusive: Potency [2] 7.94 µM [activator, partial curve] | Potency [4] 3.98 µM [activator, single point] | Potency [10] 10 µM [inhibitor, single point] | Potency [6] 39.8 µM [inhibitor, partial curve]
inactive: activity change, negative = inhibition [1] 2.83% | Potency [5] | Potency [7]

CCNc1ncc2nc(-c3ccc(OC)cc3)c(=O)n(C)c2n1
inconclusive: activity change, negative = inhibition [9, 18] 30.9% [activator] | activity, negative = inhibition [11, 18] 37.8% [activator] | Potency [2] 7.94 µM [activator, partial curve] | activity change, negative = inhibition [5] 5.74% | Potency [7] 17.8 µM [inhibitor, single point]
active: Potency [4] 3.98 µM

COc1ccccc1-c1ccc2ncnc(NCc3cccnc3)c2c1
inconclusive: activity change, negative = inhibition [9, 18] 5.35% [activator] | activity change, negative = inhibition [5] -13.5% | Potency [6] 79.4 µM [inhibitor, partial curve, poor fit] | Potency [7] 28.2 µM [inhibitor, single point]

N#Cc1ccc(CN2CCCC3(CCN(C(=O)c4ccco4)CC3)C2)cc1
inconclusive: activity change, negative = inhibition [9, 18] -69.9% [inhibitor]
inactive: Potency [5] | Potency [7]

O=C(c1ccncc1)N1CCC2(CCN(Cc3cc(C(F)(F)F)cc(C(F)(F)F)c3)CC2)CC1
inconclusive: activity change, negative = inhibition [9, 18] -14.5% [inhibitor] | activity change, negative = inhibition [5] 5.8%
inactive: Potency [7]

COc1ncc2nc(-c3cc(F)cc(F)c3)c(=O)n(C3CC3)c2n1
inactive: activity change, negative = inhibition [9, 18] -2%
inconclusive: activity change, negative = inhibition [5] 3.92% | Potency [7] 2 µM [inhibitor, full curve]

CC1=C(\C=C/C(C)=C/C=C\C(C)=C\C(=O)O)C(C)(C)CCC1
inconclusive: activity change, negative = inhibition ([9]; at 17.2 µM (top of the series)) -67.1% [inhibitor] and -59% [inhibitor] | activity change, negative = inhibition ([9]; at 38 µM (top of the series)) -83.8% [inhibitor] | activity, negative = inhibition ([11]; at 17.2 µM (top of the series)) -34% [inhibitor] and -36.9% [inhibitor] | activity, negative = inhibition ([11]; at 38 µM (top of the series)) -37% [inhibitor] and -62.1% [inhibitor] | activity change, negative = inhibition [12] -39.4% | Potency [2] 19 µM [inhibitor, single point] | Potency [14] 3.98 µM [activator, partial curve, poor fit] and 10 µM [inhibitor, single point] | activity change, negative = inhibition [16] -21% [phenotype inactive] and -10.5% [phenotype inactive] | activity change, negative = inhibition [5] 8.69%
inactive: Potency [13] | Potency [15] | Potency [7]

CN1CCN(c2ncc3ncc(=O)n(Cc4cccs4)c3n2)CC1
inconclusive: activity change, negative = inhibition [9, 18] -46.9% [inhibitor] | Potency [7] 11.2 µM [inhibitor, single point]
inactive: Potency [5]

N[C@@H](CO)C(=O)O
inconclusive: Potency [8] 39.8 µM [decreasing] | Potency [2] 19 µM [inhibitor, single point] | activity change, negative = inhibition [14] 0.519% | activity change, negative = inhibition [16] -15.2% [phenotype inactive] | Potency [17] 20 µM [inhibitor, partial curve, poor fit] | activity change, negative = inhibition [5] 4.75% | Potency [7] 31.6 µM [inhibitor, partial curve, poor fit]

CN(C)c1ccc(-c2nc(Nc3ccncc3)c3ccccc3n2)cc1
inconclusive: activity change, negative = inhibition [9, 18] -45.7% [inhibitor] | Potency [12] 25.1 µM [inhibitor, single point] | activation [4] 44.4% | Potency [5] 20 µM [cytotoxic, partial curve] | Potency [6] 44.7 µM [inhibitor, partial curve] | Potency [7] 11.2 µM [inhibitor, single point]
